Results taken from the supplement of paper PMC3334620.
The full ranking holds about 33,000 sequences; the median of “E-score (-0.5 to 0.5)” is about -0.054, and the highest 2% start at about 0.39. The list shows a part of the results.

target: Ylr278c (UniProt Q05854); experiment: PBM E-score (8-mer binding enrichment) (E-score (-0.5 to 0.5)); higher = stronger / more preferred TF binding; most listed sequences are background and not binding sites; conditions: protein concentration: 200 nM; construct: GST-DNA-binding domain
In short: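 Universal all-10-mer Agilent arrays, double-stranded by primer extension on fresh or once-stripped slides, were probed with about 100-200 nM GST-tagged yeast transcription factors made by PURExpress. Fluorescent anti-GST detected bound protein, and masliner normalised the scans. E-scores from the Universal PBM Analysis Suite were given to each ungapped eight-base word pooled with its reverse complement.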

Row | Sequence | PBM E-score
1 | CCACTGAG | -0.208
2 | GATCCAAA | -0.0479
3 | TACTACTA | 0.0855
4 | ACCGCATC | 0.206
5 | CGCGATTC | 0.175
6 | AGATCACC | 0.0118
7 | ACACTCGT | -0.246
8 | CTCATCTA | -0.0383
9 | TACCGGGA | 0.381
10 | AGTACAGA | -0.11
11 | AACATTAA | -0.0448
12 | CGAATCAG | -0.203
13 | ATACCTAG | -0.167
14 | AAGAGGAG | -0.103
15 | AGTGTGTA | -0.216
16 | GAGTTATC | 0.291
17 | CACCTTTA | -0.17
18 | GATTCAAA | -0.234
19 | CATCCCAC | -0.135
20 | ACTAATGG | 0.0475
21 | GATAGTGC | -0.00932
22 | CGGCGCCA | 0.214
23 | ACGCCCCG | 0.229
24 | CCTGACAC | -0.128
25 | CAGAGCCG | 0.0202

Row | Sequence | PBM E-score
26 | AATGTCCA | -0.115
27 | CAAATTCA | -0.0408
28 | AACAAGCT | -0.0579
29 | GTTTGGGA | -0.133
30 | CCACCCGC | 0.201
31 | ACACCACT | -0.0175
32 | GTAATTGA | 0.06
33 | GATTTACC | 0.224
34 | ATGGCAAT | -0.106
35 | CTAGCTAC | -0.25
36 | GACCGGGA | 0.359
37 | GAACTTCC | 0.179
38 | AGATATCA | -0.0909
39 | TGGTATAA | -0.0848
40 | CATAACGC | -0.0267
41 | CATAGCGC | 0.105
42 | AAACGAAA | 0.0454
43 | AAGCTCAG | -0.282
44 | TAAGCTCA | -0.161
45 | CGTTTGAG | -0.165
46 | CCACACGA | -0.136
47 | AACGCGTT | 0.0285
48 | GTTCCCCA | -0.183
49 | TAGGAACA | -0.123
50 | GATGTGAA | -0.0613

Row | Sequence | PBM E-score
51 | GATATACC | 0.124
52 | AAACTTCC | 0.248
53 | CCATACCC | 0.0966
54 | CGGAGACA | 0.39
55 | CTGTGGGC | -0.15
56 | GGCACCGA | 0.0998
57 | AGGAGGGC | -0.171
58 | CTGGGAGC | -0.169
59 | CCATTCCA | -0.134
60 | AACGCGTC | 0.025
61 | AAAACATC | -0.155
62 | CAACAGAG | -0.0308
63 | GCGAAATA | 0.056
64 | CGCGGTGA | 0.136
65 | GAAGCAAC | -0.12
66 | ACCCTTAT | -0.098
67 | CCCCCGGA | 0.395
68 | AATCGCGC | 0.141
69 | AAAATTCG | 0.074
70 | AGCTTTCC | 0.117
71 | AGAGCCGA | 0.158
72 | ATCCGAAC | 0.344
73 | AGGTGAGA | -0.178
74 | CTAGTACA | -0.131
75 | GGCTATTA | -0.0724

Row | Sequence | PBM E-score
76 | CGTACCAA | -0.0391
77 | CTCTGTGA | -0.248
78 | ACCACGAA | -0.167
79 | ACGTGATG | -0.305
80 | AAACAGCG | 0.0864
81 | GTGGACGA | -0.093
82 | ATGGCAGC | -0.138
83 | AGGAAAAC | 0.024
84 | CTCACTGC | -0.157
85 | GACTATTA | -0.118
86 | TTTAAAAA | 0.0255
87 | CATGTAGG | -0.0591
88 | ATGGATAA | -0.0876
89 | AGGGAATC | -0.0348
90 | ATAACGAT | -0.112
91 | AGGGAAGA | -0.244
92 | AGCCGTCG | 0.0398
93 | AAATACTG | -0.0665
94 | ACTGCGCG | 0.155
95 | CACGGAGG | 0.394
96 | CATACGGG | 0.0552
97 | CAAGTATA | -0.246
98 | ACGGCTGC | -0.0478
99 | CTCAGGAG | -0.171
100 | CAGACTAG | -0.375

Row | Sequence | PBM E-score
101 | CCATCGAA | -0.181
102 | CACCAGTG | -0.283
103 | CGCTGGAC | -0.0955
104 | AGTTTCAC | -0.256
105 | CAGTTGGG | -0.304
106 | ATAATCGA | -0.125
107 | AGAGTGGG | -0.102
108 | ACTTCCGC | 0.342
109 | CAGTTCCC | 0.216
110 | ACGCATAC | 0.0245
111 | ACCGTCGC | 0.25
112 | ACATGACT | -0.245
113 | CGCAGTCA | -0.0968
114 | ACCTGTGG | -0.154
115 | CTATTGCA | -0.052
116 | GTACAAGA | -0.0981
117 | AGCTGTTA | -0.199
118 | AGAACCCT | -0.065
119 | CAAATAGA | -0.0141
120 | CTCCTAGA | -0.13
121 | AAGCTGTA | -0.131
122 | ATTGAGCA | -0.234
123 | AAAATGAC | -0.0313
124 | ACCCTCGA | -0.0827
125 | ACATTAAT | 0.0263

Row | Sequence | PBM E-score
126 | CTTCAATC | -0.0498
127 | CGGAGGGC | 0.375
128 | AACCTAGC | 0.0403
129 | CCGTTGGA | 0.105
130 | AGAGAGAG | -0.293
131 | GATTGTCA | 0.00867
132 | ATAACCCA | -0.0649
133 | TCCGACGA | 0.397
134 | CAATTCCC | 0.19
135 | CATTGCAC | -0.0913
136 | TGCGTCAA | -0.0322
137 | CACCCAAA | -0.0681
138 | ACCAATAA | -0.0201
139 | CTGCGTAA | -0.0237
140 | CTTTTGCA | -0.155
141 | CCATAGGA | -0.14
142 | TCCAGGAA | -0.0456
143 | AAATTCAG | -0.043
144 | ATCCAGAG | -0.211
145 | GTGCAAAA | -0.271
146 | AGTCAGCG | 0.0403
147 | GAACCACC | 0.058
148 | TCCCCTAA | -0.0951
149 | TCGCAAGA | -0.147
150 | CTTGACGC | -0.0517

Row | Sequence | PBM E-score
151 | GTCGGAGA | 0.444
152 | ACTGCTGC | -0.051
153 | ACTTGCGG | 0.151
154 | ACCAGCTG | -0.235
155 | TACGTACA | -0.187
156 | AAGTCAGG | 0.0453
157 | CATATCAA | -0.0107
158 | GGCCCCAA | -0.0242
159 | CGCTAGGC | -0.0311
160 | AAGATAGA | -0.155
161 | CAGGTATA | -0.0991
162 | AGCCGAAT | 0.286
163 | AACGCTGG | -0.142
164 | ACGTATTC | -0.0234
165 | CCTTATCG | 0.103
166 | GCTTCGCC | -0.0684
167 | AGGTACGC | 0.0166
168 | AGTAATGC | 0.0484
169 | AACCGAGA | 0.105
170 | CACGCGGG | 0.0412
171 | CGAGGCTC | -0.118
172 | CTAGCGGA | 0.255
173 | GTAAACCA | 0.166
174 | ATTCGTAG | -0.112
175 | CTCCCCAC | -0.021

Row | Sequence | PBM E-score
176 | ATTTTCAG | -0.0345
177 | TCGACAAA | -0.0156
178 | GCTAGCCC | -0.0364
179 | ATCCTCTA | -0.258
180 | GGTAAGAA | -0.0877
181 | AACGTCGG | 0.213
182 | ATAGCTTA | -0.133
183 | CATGATGC | -0.265
184 | ATGGCTAG | -0.244
185 | AGGAGACC | -0.145
186 | CGTGTGCC | -0.126
187 | GCAGCCCC | 0.19
188 | ATGGCGCG | 0.103
189 | CCGTGCGC | 0.192
190 | ACCTTACG | 0.00341
191 | GGATATTA | 0.217
192 | AGATGCAT | -0.158
193 | CAACTCAG | -0.114
194 | ATCCCCAT | 0.00014
195 | ATGTATGC | 0.0115
196 | CCGTACGC | 0.192
197 | CAAGGGAG | -0.0698
198 | AAGCCGGT | 0.333
199 | GCGGGAGC | 0.0811
200 | TATTGTGA | -0.0942

Row | Sequence | PBM E-score
201 | AGCTTCGC | -0.251
202 | CGTCCTAG | -0.0244
203 | AAAGACTA | -0.0707
204 | ATCTAATA | -0.146
205 | CCCCATCA | -0.0787
206 | CAGCTATC | -0.133
207 | ACTAGACA | -0.0591
208 | CGTAGATC | 0.0972
209 | AGAGGATA | -0.2
210 | AGTGGTAC | -0.277
211 | ATGATCCG | 0.273
212 | CCTGCCAG | -0.283
213 | ACGTTCCG | 0.289
214 | GTTCCGGA | 0.45
215 | AAAACGAC | -0.245
216 | ATGCAGCG | 0.0411
217 | AGAATAGG | -0.014
218 | CCCCCCGC | -0.0604
219 | GGCAGGCC | -0.0509
